# From article PMC4336329 (PLoS ONE, 2015)
# Out of some 310,000 compounds screened, about 14,000 (4.5%) showed an effect of 50% or more. Effects have a minus sign here. This is one part of the list.
# Target: human ether-à-go-go-related gene (hERG) potassium channel (human, UniProt Q12809)
# Assay: primary screen, population patch clamp on CHO cells stably expressing hERG
# 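Further: peak tail current of the secondary pulse compared with the same well before compound.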
# Chain of human ether-à-go-go-related gene (hERG) potassium channel (Q12809 whole entry, looked up): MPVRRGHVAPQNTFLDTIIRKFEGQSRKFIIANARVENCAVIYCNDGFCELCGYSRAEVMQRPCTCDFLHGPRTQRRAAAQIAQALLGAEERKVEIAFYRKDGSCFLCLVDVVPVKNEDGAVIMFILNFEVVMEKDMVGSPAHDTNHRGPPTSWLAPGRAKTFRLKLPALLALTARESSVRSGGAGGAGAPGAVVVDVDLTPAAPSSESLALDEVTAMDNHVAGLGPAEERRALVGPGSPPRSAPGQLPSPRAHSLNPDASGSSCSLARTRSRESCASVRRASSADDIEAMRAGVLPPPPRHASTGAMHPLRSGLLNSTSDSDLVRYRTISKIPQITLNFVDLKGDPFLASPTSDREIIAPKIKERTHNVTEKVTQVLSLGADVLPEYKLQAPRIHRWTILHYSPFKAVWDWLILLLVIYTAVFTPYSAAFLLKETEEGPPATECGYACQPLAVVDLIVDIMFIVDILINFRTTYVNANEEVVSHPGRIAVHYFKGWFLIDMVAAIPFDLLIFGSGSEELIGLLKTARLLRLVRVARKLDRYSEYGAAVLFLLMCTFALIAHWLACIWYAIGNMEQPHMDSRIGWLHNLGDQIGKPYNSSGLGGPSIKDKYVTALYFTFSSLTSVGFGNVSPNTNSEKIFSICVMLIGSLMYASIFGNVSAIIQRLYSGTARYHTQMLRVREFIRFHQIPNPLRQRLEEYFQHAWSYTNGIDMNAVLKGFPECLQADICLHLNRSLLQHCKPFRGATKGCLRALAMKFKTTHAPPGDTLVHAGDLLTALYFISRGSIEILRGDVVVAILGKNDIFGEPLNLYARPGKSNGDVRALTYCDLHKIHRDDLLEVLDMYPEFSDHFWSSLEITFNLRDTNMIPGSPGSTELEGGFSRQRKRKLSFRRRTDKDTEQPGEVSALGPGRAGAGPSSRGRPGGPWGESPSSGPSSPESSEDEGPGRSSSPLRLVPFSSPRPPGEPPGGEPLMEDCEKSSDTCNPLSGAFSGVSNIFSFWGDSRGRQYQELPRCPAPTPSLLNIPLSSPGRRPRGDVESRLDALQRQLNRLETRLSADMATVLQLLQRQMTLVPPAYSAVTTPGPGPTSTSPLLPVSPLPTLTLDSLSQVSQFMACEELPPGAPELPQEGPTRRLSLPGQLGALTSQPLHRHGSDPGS
row,SMILES,"hERG current change (%, negative = inhibition) at 10uM"
1,COc1ccc2cc(C3=CC(=O)C[C@H](c4ccc5c(c4)OCO5)C3)ccc2c1,17.3%
2,COc1cnc(NS(=O)(=O)c2ccc(N)cc2)nc1,16.1%
3,COc1ccc(-c2nc3ccc(C)cn3c2NCc2ccc3c(c2)OCO3)cc1,-34.1%
4,CCCCCN=CC1=C(O)CC(c2ccccc2)CC1=O (centres unmarked),-6.98%
5,Cc1nn(Cc2ccccc2Cl)c(Cl)c1C(=O)OCC(=O)NC(=O)NC1CCCCC1,10.4%
6,CCN(CC)C(=O)CSC1=N/C(=C/c2ccco2)C(=O)N1c1ccc(OC)c(Cl)c1,7.43%
7,Cc1ccc(-c2n[nH]c(=O)c3ccccc23)cc1S(=O)(=O)NCCN1CCOCC1,-9.11%
8,Cc1ccc(C(=O)c2c(NC(=O)c3cccnc3)sc3c2CCCC3)cc1,-11.3%
9,Cc1c(OCC(=O)NCCN2CCOCC2)ccc2c3c(c(=O)oc12)CCC3,-14.2%
10,CCOC(=O)c1[nH]c(C)c(C(=O)NCC2CCCO2)c1C (centres unmarked),6.52%
11,O=C(CSc1nnc(-c2ccncc2)o1)Nc1nncs1,15.5%
12,Cc1cccc(-n2nnnc2SCc2csc(-c3ccccc3)n2)c1,-18.8%
13,CCCOC(=O)CCCN1C(=O)/C(=C2\SC(=S)N(CCCC(=O)OCCC)C2=O)SC1=S,9.91%
14,CCC(CC)NC1CCCCC1OC (centres unmarked),17.4%
15,COc1cc2c(cc1NC(=O)CSc1nc3cc(Cl)ccc3s1)oc1ccccc12,8.33%
16,COc1ccc(-c2nn(-c3ccccc3C)cc2CNC(C)Cn2cncn2)cc1F (centres unmarked),-5.1%
17,Cc1cc(F)ccc1NCc1cccnc1,16%
18,CCOc1ncccc1C(=O)OCC(=O)Nc1ccc(C(C)C)cc1,14.2%
19,COC(=O)c1ccc(CS(=O)(=O)c2ccc(C)cc2)cc1,13.8%
20,COc1ccc(C2CC(c3ccccc3)=NN2c2ccc(Cl)c(C(=O)O)c2)cc1 (centres unmarked),17%
21,CNC(=O)CSc1nnc(-c2ccc3c(c2)OCO3)n1C,15.7%
22,C=CCSc1nc2ccccc2n1S(=O)(=O)c1ccc(Cl)cc1,1.68%
23,CC(=O)c1ccc(OCC(O)CN2CCC(C)CC2)cc1.Cl (centres unmarked),-31.6%

row,SMILES,"hERG current change (%, negative = inhibition) at 10uM"
1,Cc1ccc(S(=O)(=O)NC2(C(F)(F)F)NC(=O)N(c3ccc(F)cc3)C2=O)cc1 (centres unmarked),9.68%
2,CC1=NOC(=O)/C1=C/c1ccc(-c2ccc(Cl)cc2)o1,17.2%
3,O=C(c1cccnc1)C1Cc2ccccc2C1=O (centres unmarked),15.3%
4,CCN1C(=O)C(=C2C=C(C)N(Cc3ccco3)C(C)=C2)C(=O)N(CC)C1=S,-35%
5,COc1cccc(CC2(CO)CCCN(S(=O)(=O)N(C)C)C2)c1 (centres unmarked),42.4%
6,CCNC(=S)N1CCN(Cc2ccc3c(c2)OCO3)CC1,18%
7,Cc1ccc(SCc2cc(=O)n3[nH]cnc3n2)cc1,-0.82%
8,CCSc1nc2ccc(OC)cc2cc1C#N,-2.53%
9,CCOC(=O)C1=C(C)NC(SC)=NC1c1ccc(OC)cc1.I (centres unmarked),-4.06%
10,CC1CCN(c2ncnc3nc[nH]c23)CC1,-7.2%
11,Cc1ccc(S(=O)(=O)c2c(N)n(CCCN(C)C)c3nc4ccccc4nc23)cc1,-59%
12,Cn1c(=O)c2c(nc(Sc3ncccn3)n2Cc2ccccc2Cl)n(C)c1=O,-8.1%
13,Cc1ccsc1/C=C(\CC(=O)O)c1nc2ccccc2o1,13.1%
14,Cc1cc(C)nc(-n2nc(C)cc2NC(=O)c2ccc(F)cc2F)n1,-0.0513%
15,Cc1ccc(OCCC(=O)N2CCN(c3ccc(O)cc3)CC2)cc1,-34.7%
16,CCOC(=O)CSc1nc(-c2ccccc2)nc2ccc(C)cc12,13.4%
17,COc1ccc(N2C(=O)C(CC(=O)Nc3ccccc3)N(Cc3ccc(OC)c(OC)c3)C2=O)cc1 (centres unmarked),16.7%
18,CC(C)Cn1c2c(c(=O)[nH]c1=O)C(C(F)(F)F)(C(F)(F)F)N=C(CCC1CCCCC1)N2,3.98%
19,CC(C)C[C@H](NC(=O)C1CC(=O)N(c2ccc3c(c2)OCCO3)C1)C(=O)NC1CCCC1 (some centres unmarked),26.7%
20,Cc1cc(OCC(=O)Nc2ccc(F)c(F)c2)nc(C(C)C)n1,15.3%
21,CC(C)(C)SCCNS(=O)(=O)c1ccccc1,6.08%
22,O=C1CSC(=S)N1/N=C/c1ccc(Cl)c([N+](=O)[O-])c1,7.66%
23,CC(=O)Nc1ccc(C(=O)Nc2ccc(S(=O)(=O)N3CCCCC3)cc2)cc1,2.24%

row,SMILES,"hERG current change (%, negative = inhibition) at 10uM"
1,Cl.Cn1cnc([N+](=O)[O-])c1SCC(=O)NN,15.3%
2,CC(=O)c1cn(CC(=O)NCc2cccnc2)c2ccccc12,3.67%
3,Cc1sc2ncnc(SC(C)C#N)c2c1C (centres unmarked),19.6%
4,Cc1cccc2sc(N(CCCN(C)C)C(=O)c3ccc(C(=O)c4ccccc4)cc3)nc12,-53.2%
5,CNC(=O)c1ccccc1NC(=O)c1ccco1,6.37%
6,COc1cccc2c1Oc1ncccc1N(C(=O)CCC(=O)NCc1cccc(C)c1)C2,-23.5%
7,Cc1ccc(Cn2cc(C(=O)NN)c(=O)c3ccc(F)cc32)cc1,-51.6%
8,C=CCNS(=O)(=O)c1ccc2nsnc2c1,5.06%
9,CCOC(=O)N1CCN(C2CC(=O)N(c3ccc(Cl)c(Cl)c3)C2=O)CC1 (centres unmarked),-9.59%
10,NC(=S)N=Nc1c(O)[nH]c2c(Br)cc(Br)cc12,13%
11,O=C(O)CCn1c2c(c3ccccc31)CCCC2,25.3%
12,Cc1nn(C)cc1C1C2=C(CC(C)(C)CC2=O)N(c2ccccc2)C2=C1C(=O)CC(C)(C)C2,-6.46%
13,CC(C)(C)NC(=O)[C@H]1CC[C@H]2[C@@H]3CC[C@H]4NC(=O)C=C[C@]4(C)[C@H]3CC[C@]12C,-7.77%
14,C=CCn1c(SCC(=O)c2ccc(Cl)cc2)nnc1-c1ccc2c(c1)OCO2,-37.5%
15,COc1ccc(NC(=O)CCNC(C)=O)cc1NS(=O)(=O)c1ccc(F)cc1,0.12%
16,Cc1ccc(-c2csc(NC(=O)Cn3cnc4c3c(=O)n(C)c(=O)n4C)n2)cc1C,-8.92%
17,C=CCn1c(CCn2c3ccccc3c3ccccc32)n[nH]c1=S,49.1%
18,Cc1cc2oc(=O)cc(CN3CCC(C)CC3)c2c(C)c1Cl,-2.84%
19,CCOC(=O)C1(CCOc2ccccc2)CCN(Cc2ccc(C)s2)CC1,-89.8%
20,O=C(CSc1ccc(F)cc1)NCCSc1ccccc1,-22.1%
21,O=C(CNC(=O)c1cccc(Br)c1)N/N=C/c1ccc2c(c1)OCO2,21.6%
22,COc1ccc(-c2csc(NC(=O)c3c(OC)cccc3OC)n2)cc1,7.77%
23,CCc1c(O)nc(SCC(=O)N(CC)CC)[nH]c1=O,12%

row,SMILES,"hERG current change (%, negative = inhibition) at 10uM"
1,Cc1cccc(C)c1OCc1nnc(SCC(=O)Nc2ccc(N3CCOCC3)cc2)o1,17.9%
2,Cc1ccccc1NC(=O)CCN1CCN(C/C=C/c2ccccc2)CC1,-78.9%
3,COc1cc(NC(=O)CCc2c(C)nn(-c3ccc(N4CCOCC4)nn3)c2C)cc(OC)c1OC,8.82%
4,Cc1cc(C)c2nc(SCc3ccc([N+](=O)[O-])cc3)nc(C)c2c1,4.5%
5,O=C(Nc1ccc2c(c1)OCCO2)C1CCCN(S(=O)(=O)c2cccc3nsnc23)C1 (centres unmarked),4.93%
6,Cc1cc(SCC(=O)Nc2ccccc2)nc(C)n1,2.58%
7,COc1ccccc1NS(=O)(=O)c1ccc(Cl)c(NC(=O)c2sc3cc(Cl)ccc3c2Cl)c1,22.1%
8,N#Cc1ccccc1CSc1nc2ncc(Br)cc2[nH]1,5.22%
9,COc1cc2c(cc1OC)C(COc1ccc([N+](=O)[O-])cc1)NCC2 (centres unmarked),-76.6%
10,Cc1cc(C)n(-c2nc3ccccc3c3nc(C)nn23)n1,2.9%
11,COc1ccc(OCCC(=O)NCc2ccccc2)cc1,2.89%
12,Cc1ccc(CNC(=O)C2CCCN(Cc3cnn(-c4ccccc4)c3-n3cccc3)C2)cc1 (centres unmarked),-65.3%
13,CCOC(=O)c1oc2cc(O)ccc2c(=O)c1-c1csc(C)n1,9.39%
14,CCOc1ccc(-n2c(C)nc3cc(C(=O)NCc4ccc5c(c4)OCO5)ccc32)cc1,-33.5%
15,COCc1cc(=O)n2[nH]cc(-c3ccsc3)c2n1,3.74%
16,COC(=O)C1CCN(CC(=O)N(C)c2c(N)n(Cc3ccccc3)c(=O)[nH]c2=O)CC1,-21.2%
17,FC(F)(F)COc1cc(-c2nnc(SCc3ccccc3)n2Cc2ccco2)cc(OCC(F)(F)F)n1,6.57%
18,CCc1cc(Cn2nc(-c3ccccc3)cc2C(=O)NCc2cccs2)on1,-16.9%
19,O=C(CC1C(=O)NCCN1Cc1ccccc1)NCCCOc1cccnc1 (centres unmarked),12%
20,Nc1nnc(Cc2ccccc2)s1,-11.8%
